The values below come from article PMC4336329 (PLoS ONE, 2015).

Out of some 310,000 compounds screened, about 14,000 (4.5%) showed an effect of 50% or more. Effects have a minus sign here. This is one part of the list.
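Also: peak tail current of the secondary pulse compared with the same well before compound.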

The target in the test is human ether-à-go-go-related gene (hERG) potassium channel (human, UniProt Q12809). Nature of the test: primary screen, population patch clamp on CHO cells stably expressing hERG.
human ether-à-go-go-related gene (hERG) potassium channel, sequence (Q12809 whole entry, looked up): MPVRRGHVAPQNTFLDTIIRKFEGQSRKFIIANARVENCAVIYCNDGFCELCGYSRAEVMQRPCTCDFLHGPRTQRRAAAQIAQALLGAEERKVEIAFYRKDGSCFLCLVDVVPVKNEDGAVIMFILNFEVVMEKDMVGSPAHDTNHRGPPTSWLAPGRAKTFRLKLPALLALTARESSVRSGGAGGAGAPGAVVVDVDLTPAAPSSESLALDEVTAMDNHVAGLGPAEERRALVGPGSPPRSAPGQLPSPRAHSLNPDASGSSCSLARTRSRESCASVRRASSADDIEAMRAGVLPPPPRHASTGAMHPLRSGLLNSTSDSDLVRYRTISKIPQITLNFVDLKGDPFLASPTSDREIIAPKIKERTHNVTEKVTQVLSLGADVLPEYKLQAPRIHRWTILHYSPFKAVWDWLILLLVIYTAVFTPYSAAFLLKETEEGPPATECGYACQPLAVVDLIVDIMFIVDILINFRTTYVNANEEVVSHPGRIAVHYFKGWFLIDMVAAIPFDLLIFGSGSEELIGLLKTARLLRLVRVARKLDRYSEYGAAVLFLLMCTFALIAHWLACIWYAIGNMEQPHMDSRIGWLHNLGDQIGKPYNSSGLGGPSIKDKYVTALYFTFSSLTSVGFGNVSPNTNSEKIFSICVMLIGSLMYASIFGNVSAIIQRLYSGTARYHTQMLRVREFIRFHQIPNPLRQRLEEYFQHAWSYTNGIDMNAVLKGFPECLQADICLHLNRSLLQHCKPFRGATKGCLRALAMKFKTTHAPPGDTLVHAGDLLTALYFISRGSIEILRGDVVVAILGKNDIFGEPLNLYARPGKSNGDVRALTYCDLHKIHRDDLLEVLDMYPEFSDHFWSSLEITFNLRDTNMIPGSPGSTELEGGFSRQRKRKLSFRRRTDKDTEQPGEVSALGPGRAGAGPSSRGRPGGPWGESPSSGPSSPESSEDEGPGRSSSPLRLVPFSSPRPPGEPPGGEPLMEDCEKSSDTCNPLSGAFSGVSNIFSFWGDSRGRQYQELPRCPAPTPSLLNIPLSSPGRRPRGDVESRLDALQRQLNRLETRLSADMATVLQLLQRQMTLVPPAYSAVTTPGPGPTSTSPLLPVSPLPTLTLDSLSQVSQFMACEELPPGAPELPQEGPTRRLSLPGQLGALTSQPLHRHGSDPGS
As for `CC(=O)NC1(C(F)(F)F)NC(=O)N(CC(C)C)C1=O` (centres unmarked), the “hERG current change (%, negative = inhibition) at 10uM” value is recorded as 1.53%.
With `Cc1ccc(S(=O)(=O)N2CCCCC2)cc1NC(=O)C1CC(=O)N(c2ccc3c(c2)OCCO3)C1` (centres unmarked) the figure was -3.37%; with `CC1(CCc2ccccc2)NC(=O)N(CC(=O)Nc2ccc3c(c2)OCCO3)C1=O` (centres unmarked), -0.56%; with `COc1ccc(OC)c(CCNC(=O)CN2C(=O)CC(C)(C)S(=O)(=O)c3ccccc32)c1`, 3.69%.
With `O=C(Nc1cccc2ncccc12)c1ccc([N+](=O)[O-])o1` the figure was 0.646%; with `CCN(CC)S(=O)(=O)c1ccc(NC(=O)COC(=O)c2ccc(-n3nc(C)cc3C)cc2)cc1`, -7.35%; with `COc1ccc(C(=O)Oc2c(OC)cc(C(=S)N3CCOCC3)cc2OC)cc1OC`, 11.3%.
Then `c1ccc2c(c1)NC1(CCCC1)n1c-2nc2ccccc21`, with -9.46%; and `CS(=O)(=O)N(Cc1ccc(Cl)cc1)c1ccc(C(=O)N2CCN(c3ccccc3)CC2)cc1`, with -20.9%.
Turning to `COCCn1c(C)cc(C(=O)CSc2nc(C)c(C)c(C)n2)c1C`, the “hERG current change (%, negative = inhibition) at 10uM” value was 8.6%.
With `Clc1ncn(C23CC4CC(CC(C4)C2)C3)n1` the figure was 1.57%; with `COc1cccc(-n2c(COc3ccc(C)cc3)nnc2SCC(=O)O)c1`, 12.1%; with `Br.CC1CN(CC(=O)c2ccccc2Cl)CC(C)O1` (centres unmarked), 15.1%.
For the molecule `O=c1cc(-c2ccccc2)nc2nc(-c3ccco3)[nH]n12`, the “hERG current change (%, negative = inhibition) at 10uM” value was found to be 5.67%.
Then `Cc1cc(NCCO)nc(N2CCOCC2)n1`, with 12.7%.
With `CCCc1cc(-c2n[nH]c(=S)n2CC(C)C)cs1` the figure was -0.0178%; with `O=C(O)CCC(=O)Nc1nc(-c2ccccc2)cs1`, 9.01%.
Then `CC(=O)c1ccc(NC(=S)NCCc2cccc(Cl)c2)cc1`, with -7.63%.
For the molecule `COc1ccc(S(=O)(=O)N2CCNC(=O)CC2)cc1`, the “hERG current change (%, negative = inhibition) at 10uM” value worked out at 9.9%.
With `Cn1cc(CNC(=O)c2ccc(OC3CCN(Cc4ccccn4)CC3)cc2)cn1` the figure was 17.8%; with `COc1ccc2c(c1)[nH]c1c(C)nccc12.Cl`, -28%; with `CCOc1ccc(CN2CCN(Cc3nc(C(C)C)cs3)CC2CCO)cc1` (centres unmarked), -82.2%.
Then `CCCCN(C(=O)CCC(=O)Nc1cc(C)on1)C(C(=O)NC1CCCC1)c1cccc(OC)c1` (centres unmarked), with 12%.
Then `Cc1csc2ncc(C(=O)Nc3cccc(C(F)(F)F)c3)c(=O)n12`, with -2.52%; and `Cc1n[nH]c(=S)n1-c1cccc(Cl)c1`, with 19.7%; and `O=C(C[N+]12CCC(CC1)C(C(O)(c1ccccc1)c1ccccc1)C2)c1ccc(Br)cc1.[Br-]` (centres unmarked), with -39%.
For the molecule `Cc1ccc(NC(=S)NCCc2cnc[nH]2)cc1C`, the “hERG current change (%, negative = inhibition) at 10uM” value was determined as 7%.
Then `O=C(Cn1cc(C(F)(F)F)ccc1=O)N/N=C/c1ccc(F)cc1`, with 4.57%; and `CCOC(=O)C1=C(C)N(Cc2ccccc2)C(=O)NC1c1ccccc1OS(=O)(=O)c1ccccc1[N+](=O)[O-]` (centres unmarked), with 9.07%; and `COC(=O)c1c(NC(NC(=O)CC(C)C)C(Cl)(Cl)Cl)sc2c1CCC2` (centres unmarked), with 1.06%.
Then `CSc1nc([O-])cc(=O)n1-c1ccc(F)cc1.[K+]`, with 2.86%; and `CCCNc1c(NS(=O)(=O)c2ccc(C)c(C)c2)c(=O)oc2ccccc12`, with -30.6%.
Then `CC(C)CCN1CCN(C/C=C/c2ccco2)CC1CCO` (centres unmarked), with -57.1%; and `CC(=O)O[C@H]1CC[C@@]2(C)[C@@H](CC[C@@H]3[C@@H]2CC[C@]2(C)[C@@H](C(C)(C)O)C[C@@H]32)C1`, with 9.09%.
Consider `Cc1ccc(S(=O)(=O)NNC(=O)c2snnc2C)cc1`, for which the “hERG current change (%, negative = inhibition) at 10uM” value is recorded as -2.43%.
With `CC(C)Nc1ncnc2c1cnn2Cc1ccccc1Cl` the figure was 1.32%; with `CCOC(=O)c1sc2c(c1C)c(=O)n(CCO)c(=O)n2Cc1ccccc1`, 4.88%.
With `Cc1cc2c(=O)oc(-c3ccc(Br)cc3)nc2s1`, the “hERG current change (%, negative = inhibition) at 10uM” value is 14.6%.
With `O=C(CSc1nnc(SCc2ccc(Cl)cc2)s1)N/N=C/c1ccc(Cl)cc1Cl`, the “hERG current change (%, negative = inhibition) at 10uM” value amounted to 15.7%.
Regarding `CN(C(=O)CSc1n[nH]c(-c2cccs2)n1)C1CCS(=O)(=O)C1` (centres unmarked), the “hERG current change (%, negative = inhibition) at 10uM” value is reported as 10.1%.
In the case of `CC1(C)Cc2c(sc3c2c(=N)n(Cc2ccco2)c(=O)n3Cc2ccc(Cl)cc2)CO1`, the “hERG current change (%, negative = inhibition) at 10uM” value was -8.92%.
Then `COc1ccc(NC(=S)NC(=O)/C=C/c2ccco2)c(OC)c1`, with 1.82%; and `COc1ccc(CNC(=O)COC(=O)CNC(=O)c2sc3ccccc3c2Cl)cc1OC`, with 7.29%.
Then `COc1ccc(Cn2nc(C)n(N(C)c3ncc(C(F)(F)F)cc3Cl)c2=O)cc1`, with -2.55%; and `O=c1[nH]c2cc3c(cc2cc1CN(Cc1ccco1)C(=S)NCC1CCCO1)OCCO3` (centres unmarked), with 2.8%.
With `COC(=O)C(NC(=O)c1ccccc1)=C1C=C(C)OC(C)=C1` the figure was 15.8%; with `O=C(Nc1ccccn1)c1cccc(S(=O)(=O)N2CCOCC2)c1`, -6.45%; with `COc1ccc(-n2nnnc2SCC(=O)N2CCCC2=O)cc1`, -7.03%.
Consider `COc1cccc(OCC(O)CN2C(C)CCCC2C)c1.Cl` (centres unmarked), for which the “hERG current change (%, negative = inhibition) at 10uM” value was found to be 10.8%.
With `CCC(C)[C@H](NC(=O)N1CC(=O)Nc2ccccc21)C(=O)N1CCC[C@H]1C(=O)O` (some centres unmarked), the “hERG current change (%, negative = inhibition) at 10uM” value is -2.12%.
With `O=C(/C=C/c1ccco1)Nc1ccccc1C(=O)Nc1cccc(C(=O)O)c1` the figure was 11.9%; with `CC(=O)C(C)Oc1ccc2c3c(c(=O)oc2c1)CCCCC3` (centres unmarked), 2.1%; with `O=C(NC1CCCC1)C1(c2ccccc2)CCN(S(=O)(=O)c2ccccc2)CC1`, -6.14%.
With `Cc1sc2ncnc(N3CCN(S(=O)(=O)c4ccccc4)CC3)c2c1C` the figure was -18.6%.
With `CCCCc1ccc(S(=O)(=O)NCCCN2CCCC2=O)cc1`, the “hERG current change (%, negative = inhibition) at 10uM” value is on record as -5.75%.
With `Cc1ccc2c(c1)N(C(=O)CCC(=O)NCCCN1CCOCC1)CC(C)O2` (centres unmarked) the figure was -13.5%.
